The target in assay [1] is tumor-associated calcium signal transducer 2 (TACSTD2), endogenous in parental Huh7.5 cells (human (endogenous in Huh7.5)) (UniProt P09758). As to the kind of experiment: co-IP; lysates of parental and TACSTD2-overexpressing Huh7.5 cells (Pierce IP lysis buffer: 25 mM Tris-HCl pH 7.4, 150 mM NaCl, 1% NP-40, 1 mM EDTA, 5% glycerol; protease inhibitor, PhosSTOP) immunoprecipitated with anti-TACSTD2 antibody or control IgG at 4°C overnight, protein-G sepharose, five washes, eluates deglycosylated, immunoblot.

The chains behind the UniProt entries cited, without tags or fusion partners. Residues count along the entry.
UniProt P09758, residues 27-323: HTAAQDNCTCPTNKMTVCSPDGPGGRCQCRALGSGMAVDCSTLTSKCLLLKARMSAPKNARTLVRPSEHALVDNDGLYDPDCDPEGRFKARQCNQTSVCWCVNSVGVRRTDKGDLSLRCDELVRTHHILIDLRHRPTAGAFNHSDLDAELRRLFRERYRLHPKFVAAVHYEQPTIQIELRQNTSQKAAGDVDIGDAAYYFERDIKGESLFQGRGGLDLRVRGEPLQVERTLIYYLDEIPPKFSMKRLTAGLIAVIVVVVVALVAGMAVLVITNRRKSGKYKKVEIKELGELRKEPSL
UniProt O95832: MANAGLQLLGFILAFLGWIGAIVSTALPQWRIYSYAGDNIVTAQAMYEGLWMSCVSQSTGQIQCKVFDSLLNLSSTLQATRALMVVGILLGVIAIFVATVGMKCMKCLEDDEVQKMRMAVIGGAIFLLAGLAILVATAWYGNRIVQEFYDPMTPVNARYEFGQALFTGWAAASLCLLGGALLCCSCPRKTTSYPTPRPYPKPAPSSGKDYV

In assay [2] the target is tumor-associated calcium signal transducer 2 (TACSTD2), in Huh7.5 cells stably overexpressing TACSTD2 (UniProt P09758). The assay is described as above.
The target in assay [3] is T1, occludin (OCLN) (human (endogenous in Huh7.5)) (UniProt Q16625).
T1 sequence: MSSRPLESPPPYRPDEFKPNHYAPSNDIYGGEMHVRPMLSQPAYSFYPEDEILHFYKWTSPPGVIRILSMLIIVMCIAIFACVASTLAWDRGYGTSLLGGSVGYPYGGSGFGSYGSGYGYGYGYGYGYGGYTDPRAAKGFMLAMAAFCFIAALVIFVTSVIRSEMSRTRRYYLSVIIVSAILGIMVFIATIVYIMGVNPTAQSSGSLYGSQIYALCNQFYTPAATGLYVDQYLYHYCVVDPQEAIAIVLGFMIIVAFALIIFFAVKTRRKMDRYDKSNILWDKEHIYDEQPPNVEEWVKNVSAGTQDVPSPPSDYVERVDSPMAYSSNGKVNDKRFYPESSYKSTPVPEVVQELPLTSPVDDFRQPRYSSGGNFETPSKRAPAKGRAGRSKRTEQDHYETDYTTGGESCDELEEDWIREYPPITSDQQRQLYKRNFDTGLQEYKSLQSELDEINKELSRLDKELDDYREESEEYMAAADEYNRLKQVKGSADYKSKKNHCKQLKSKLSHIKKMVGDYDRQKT
As to the kind of experiment: co-IP; reciprocal: lysates of parental and TACSTD2-overexpressing Huh7.5 cells immunoprecipitated with anti-OCLN antibody or control IgG at 4°C overnight, protein-G sepharose, eluates deglycosylated; total TACSTD2 detected with biotinylated anti-TACSTD2, phosphorylated TACSTD2 with anti-PKC substrate-specific antibody.

Assay [4] concerns the target claudin-1 (CLDN1) (human (endogenous in Huh7.5)) (UniProt O95832). Put plainly: co-IP; reciprocal: lysates of parental and TACSTD2-overexpressing Huh7.5 cells immunoprecipitated with anti-CLDN1 antibody or control IgG at 4°C overnight, protein-G sepharose, eluates deglycosylated; total TACSTD2 detected with biotinylated anti-TACSTD2, phosphorylated TACSTD2 with anti-PKC substrate-specific antibody.

Assay [5] has as its target tumor-associated calcium signal transducer 2 (TACSTD2), endogenous in parental Huh7.5 cells (human (endogenous in Huh7.5)) (UniProt P09758). Put plainly: co-IP; lysates of parental and TACSTD2-overexpressing Huh7.5 cells (Pierce IP lysis buffer: 25 mM Tris-HCl pH 7.4, 150 mM NaCl, 1% NP-40, 1 mM EDTA, 5% glycerol; protease inhibitor, PhosSTOP) immunoprecipitated with anti-TACSTD2 antibody or control IgG at 4°C overnight, protein-G sepharose, five washes, eluates deglycosylated, immunoblot. The source holds these as a separate data set. Background: In western blotting, separated proteins are transferred to a membrane and probed.

Assay [6] deals with tumor-associated calcium signal transducer 2 (TACSTD2), in Huh7.5 cells stably overexpressing TACSTD2 (UniProt P09758). The assay is described as above. This is another data set of the same source.

Where two headings read alike, the source gives them in different places. Results are given in words; binding and its absence hold for the method and conditions named. Binding seen in cells or lysates may run through a third protein. Some entries that bind do so weakly or less than the wild type.

As to “claudin-1 (CLDN1) (from UniProt O95832 1-211)”, the binding result in assay [1] and in assay [2] was “binds” each time.
Consider “tumor-associated calcium signal transducer 2 (TACSTD2), endogenous in parental Huh7.5 cells (from UniProt P09758 27-323)”, for which the binding result in assay [3] and in assay [4] was “binds” throughout.
“tumor-associated calcium signal transducer 2 (TACSTD2), in Huh7.5 cells stably overexpressing TACSTD2 (from UniProt P09758 27-323)”: the binding entry in assay [3] and in assay [4] was “binds” each time.

B1: occludin (OCLN) (protein, UniProt Q16625 1-522)
chain: MSSRPLESPPPYRPDEFKPNHYAPSNDIYGGEMHVRPMLSQPAYSFYPEDEILHFYKWTSPPGVIRILSMLIIVMCIAIFACVASTLAWDRGYGTSLLGGSVGYPYGGSGFGSYGSGYGYGYGYGYGYGGYTDPRAAKGFMLAMAAFCFIAALVIFVTSVIRSEMSRTRRYYLSVIIVSAILGIMVFIATIVYIMGVNPTAQSSGSLYGSQIYALCNQFYTPAATGLYVDQYLYHYCVVDPQEAIAIVLGFMIIVAFALIIFFAVKTRRKMDRYDKSNILWDKEHIYDEQPPNVEEWVKNVSAGTQDVPSPPSDYVERVDSPMAYSSNGKVNDKRFYPESSYKSTPVPEVVQELPLTSPVDDFRQPRYSSGGNFETPSKRAPAKGRAGRSKRTEQDHYETDYTTGGESCDELEEDWIREYPPITSDQQRQLYKRNFDTGLQEYKSLQSELDEINKELSRLDKELDDYREESEEYMAAADEYNRLKQVKGSADYKSKKNHCKQLKSKLSHIKKMVGDYDRQKT
Take B1: the binding entry in assay [5] and in assay [6] was “binds” in each case.

B2: retinoblastoma protein (protein, UniProt P06400 1-928)
chain: MPPKTPRKTAATAAAAAAEPPAPPPPPPPEEDPEQDSGPEDLPLVRLEFEETEEPDFTALCQKLKIPDHVRERAWLTWEKVSSVDGVLGGYIQKKKELWGICIFIAAVDLDEMSFTFTELQKNIEISVHKFFNLLKEIDTSTKVDNAMSRLLKKYDVLFALFSKLERTCELIYLTQPSSSISTEINSALVLKVSWITFLLAKGEVLQMEDDLVISFQLMLCVLDYFIKLSPPMLLKEPYKTAVIPINGSPRTPRRGQNRSARIAKQLENDTRIIEVLCKEHECNIDEVKNVYFKNFIPFMNSLGLVTSNGLPEVENLSKRYEEIYLKNKDLDARLFLDHDKTLQTDSIDSFETQRTPRKSNLDEEVNVIPPHTPVRTVMNTIQQLMMILNSASDQPSENLISYFNNCTVNPKESILKRVKDIGYIFKEKFAKAVGQGCVEIGSQRYKLGVRLYYRVMESMLKSEEERLSIQNFSKLLNDNIFHMSLLACALEVVMATYSRSTSQNLDSGTDLSFPWILNVLNLKAFDFYKVIESFIKAEGNLTREMIKHLERCEHRIMESLAWLSDSPLFDLIKQSKDREGPTDHLESACPLNLPLQNNHTAADMYLSPVRSPKKKGSTTRVNSTANAETQATSAFQTQKPLKSTSLSLFYKKVYRLAYLRLNTLCERLLSEHPELEHIIWTLFQHTLQNEYELMRDRHLDQIMMCSMYGICKVKNIDLKFKIIVTAYKDLPHAVQETFKRVLIKEEEYDSIIVFYNSVFMQRLKTNILQYASTRPPTLSPIPHIPRSPYKFPSSPLRIPGGNIYISPLKSPYKISEGLPTPTKMTPRSRILVSIGESFGTSEKFQKINQMVCNSDRVLKRSAEGSNPPKPLKKLRFDIEGSDEADGSKHLPGESKFQQKLAEMTSTRTRMQKQKMNDSMDTSNKEEK
For the molecule B2, the binding entry in assay [5] and in assay [6] was “no binding” throughout.
